SMILES strings stand for the structures. The campaign covered roughly 310,000 compounds. About 14,000 (4.5%) showed an effect of 50% or more. Effects have a minus sign here. Some of the results follow.

The values that follow come from article PMC4336329 (PLoS ONE, 2015).
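Note: peak tail current of the secondary pulse compared with the same well before compound.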

The target in this assay is human ether-à-go-go-related gene (hERG) potassium channel (human, UniProt Q12809). Nature of the assay: primary screen, population patch clamp on CHO cells stably expressing hERG.
Sequence of human ether-à-go-go-related gene (hERG) potassium channel (Q12809 whole entry, looked up): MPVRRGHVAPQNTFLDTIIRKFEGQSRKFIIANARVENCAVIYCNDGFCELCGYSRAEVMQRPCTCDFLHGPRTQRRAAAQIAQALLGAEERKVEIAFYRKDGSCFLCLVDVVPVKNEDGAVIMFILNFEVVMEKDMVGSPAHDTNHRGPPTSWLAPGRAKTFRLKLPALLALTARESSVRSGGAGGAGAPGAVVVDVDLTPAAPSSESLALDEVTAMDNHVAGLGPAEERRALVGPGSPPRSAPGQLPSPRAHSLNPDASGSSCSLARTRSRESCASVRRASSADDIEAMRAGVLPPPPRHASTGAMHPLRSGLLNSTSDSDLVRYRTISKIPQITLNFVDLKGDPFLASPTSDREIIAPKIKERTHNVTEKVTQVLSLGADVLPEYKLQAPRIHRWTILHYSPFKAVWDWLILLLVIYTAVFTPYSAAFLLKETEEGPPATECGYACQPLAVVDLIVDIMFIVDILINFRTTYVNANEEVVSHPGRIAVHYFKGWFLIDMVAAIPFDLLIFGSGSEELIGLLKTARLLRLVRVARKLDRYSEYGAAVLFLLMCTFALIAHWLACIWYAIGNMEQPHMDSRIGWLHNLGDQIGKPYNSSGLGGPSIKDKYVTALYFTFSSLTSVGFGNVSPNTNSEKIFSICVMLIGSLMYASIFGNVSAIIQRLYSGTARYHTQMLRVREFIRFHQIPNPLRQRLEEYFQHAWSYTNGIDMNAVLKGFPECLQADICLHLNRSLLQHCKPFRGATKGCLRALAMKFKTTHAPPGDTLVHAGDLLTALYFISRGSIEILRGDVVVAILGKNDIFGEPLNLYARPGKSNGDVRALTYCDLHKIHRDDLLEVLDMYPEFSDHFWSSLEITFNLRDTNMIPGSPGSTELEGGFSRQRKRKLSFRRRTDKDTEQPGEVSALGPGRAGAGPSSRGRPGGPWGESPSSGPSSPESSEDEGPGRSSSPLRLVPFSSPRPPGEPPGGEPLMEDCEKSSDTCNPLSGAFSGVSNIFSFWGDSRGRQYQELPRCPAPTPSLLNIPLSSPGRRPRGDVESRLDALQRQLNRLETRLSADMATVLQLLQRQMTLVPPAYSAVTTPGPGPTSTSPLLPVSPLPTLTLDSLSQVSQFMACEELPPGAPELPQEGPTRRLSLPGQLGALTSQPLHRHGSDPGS
In the case of `Cc1cc(C(=O)CSc2nnnn2-c2ccccc2)c(C)n1CC1CCCO1` (stereo not drawn), the “hERG current change (%, negative = inhibition) at 10uM” value is listed as -1.92%.
The result for `COCCN(CC(=O)Nc1cccc(C)c1C)C(=O)c1ccc2ccccc2n1` reads -0.121%; that for `O=C(Nc1cc(C(F)(F)F)ccc1F)C1CCCCC1`, -7.8%; that for `Cc1ccc(C(=O)COC(=O)CNC(=O)Cc2ccccc2)cc1`, -2.44%.
In the case of `CCOC(=O)CNC(=O)C(Cc1ccccc1)NS(=O)(=O)c1ccc2c(c1)CCC(=O)N2` (stereo not drawn), the “hERG current change (%, negative = inhibition) at 10uM” value is given as -13.6%.
The result for `Cc1cc2nnc(SCC(=O)NC3CCCCC3)n2c(N)n1` reads 9.47%; that for `CCCCNC(=O)c1c(O)c2cccc3c2n(c1=O)CCC3`, -2.3%; that for `O=c1cc(CSc2nnc(COc3cccc4ccccc34)o2)c2ccccc2[nH]1`, 22.2%.
As for `CC(C)n1c(CCCO)nc2ccccc21`, the “hERG current change (%, negative = inhibition) at 10uM” value is -11.7%.
The same measure for `O=C(Oc1ccc(C(=S)N2CCCCC2)cc1)c1ccccc1F`: 9.75%; for `CC(C)(C)C(=O)C1=C(O)C(=O)N(Cc2ccccc2)C1c1ccccc1F` (stereo not drawn): 25.2%.
For the molecule `COc1cc(NS(=O)(=O)c2csc(C(N)=O)c2)cc(OC)c1`, the “hERG current change (%, negative = inhibition) at 10uM” value turned out to be 20%.
In the case of `CCOC(=O)C1(CCOc2ccccc2)CCN(Cc2cccc(OC)c2)CC1`, the “hERG current change (%, negative = inhibition) at 10uM” value is listed as -76.1%.
Turning to `COC(=O)c1sccc1NC(=O)CC1C(=O)NCCN1C(=O)Nc1ccc(OCc2ccccc2)cc1` (stereo not drawn), the “hERG current change (%, negative = inhibition) at 10uM” value was -37.5%.
The same measure for `CC(C)Cc1ccc(CN2CCCC(NC(=O)CCCN3CCCC3=O)C2)cc1` (stereo not drawn): -25.8%; for `CCCCn1c(N)c(N(CCC(C)C)C(=O)c2ccc(-c3ccc([N+](=O)[O-])cc3)o2)c(=O)[nH]c1=O`: 2.62%; for `Oc1ccc(NC(=S)N=Nc2c(O)[nH]c3ccccc23)cc1`: -2.83%.
As to `COc1ccc(-c2ncncc2-c2ccc(OC)c(OC)c2)c(O)c1`, the “hERG current change (%, negative = inhibition) at 10uM” value is recorded as 3.42%.
`COc1ccc(C2C(C(=O)/C=C/c3ccco3)=C(O)C(=O)N2CCN2CCOCC2)cc1OC` (stereo not drawn): the “hERG current change (%, negative = inhibition) at 10uM” value is 8.67%.
The same measure for `O=c1cc(CCl)nc2scc(-c3ccccc3)n12`: -0.908%; for `CC(C)OP(=O)(c1ccc(N(C)C)cc1)C(O)c1ccncc1` (stereo not drawn): -14.8%; for `CCCCN1CC(C(=O)NC2CCCCC2)CC1=O` (stereo not drawn): 13.2%.
For `Cc1ccc(N2CC(C(=O)NC3CC3)CC2=O)cc1Cl` (stereo not drawn), the “hERG current change (%, negative = inhibition) at 10uM” value is on record as 10%.
The same measure for `COc1ccc(Cc2nnc(NC(=O)Nc3ccccc3F)s2)cc1OC`: 8.55%; for `Cc1cc2cc(CNC(=O)c3cccs3)ccc2n1C`: -0.453%; for `CN(/N=C/c1ccc(Cl)cc1)c1ncc(Cl)cc1C(F)(F)F`: 19.7%.
`CCn1c(CNC(=O)c2ccc(OC)c(OC)c2)nnc1SCC(=O)Nc1ccc(OC)cc1`: the “hERG current change (%, negative = inhibition) at 10uM” value was determined as 10.6%.
As for `CCOC(=O)Cc1nnc2c(Nc3ccccc3F)nc3nonc3n12`, the “hERG current change (%, negative = inhibition) at 10uM” value was -12.7%.
With `COc1ccc(NC(=O)C2CC(=O)OC23CCOC(C)(C)C3)cc1` (stereo not drawn), the “hERG current change (%, negative = inhibition) at 10uM” value came out at 7.78%.
Take `O=C(O)CCCCCNS(=O)(=O)c1ccc(Cl)cc1`: the “hERG current change (%, negative = inhibition) at 10uM” value is 5.81%.
Consider `O=C(NNC(=O)c1ccccc1F)c1ccc2nc[nH]c2c1`, for which the “hERG current change (%, negative = inhibition) at 10uM” value was -6.54%.
`Cc1cccc(NC(=O)COc2coc(CN3CCN(c4ccccc4)CC3)cc2=O)c1C`: the “hERG current change (%, negative = inhibition) at 10uM” value is listed as -28.6%.
For `Cc1ccc(S(=O)(=O)CC(=O)N2CCOCC2)cc1`, the “hERG current change (%, negative = inhibition) at 10uM” value came out at 0.772%.
On to `COC1=CC(=O)C[C@@H](C)[C@]12Oc1c(Cl)c(OC)cc(OC)c1C2=O`, for which the “hERG current change (%, negative = inhibition) at 10uM” value was -9.99%.
On to `O=S1(=O)CCN(Cc2ccc(Cl)cc2)CC1`, for which the “hERG current change (%, negative = inhibition) at 10uM” value is on record as 14.3%.
For the molecule `CCOC(=O)COc1c(OC)cc(Cl)cc1C1Nc2ccccc2C(=O)N1c1ccc(F)cc1` (stereo not drawn), the “hERG current change (%, negative = inhibition) at 10uM” value is on record as -8.95%.
The same measure for `Cc1ccc(S(=O)(=O)/N=c2\scc(C)n2C)cc1`: 0.491%; for `CC(=O)Nc1ccc(NC(=O)C2CCCN(S(=O)(=O)c3ccc(-n4cnnn4)cc3)C2)cc1` (stereo not drawn): 0.72%; for `CCCCNC(=O)CCc1c(C)nc2c(c(C)nn2-c2ccccc2)c1C`: -36.8%.
Regarding `O=C(Oc1cccc2c(=O)[nH]ccc12)c1ccccc1`, the “hERG current change (%, negative = inhibition) at 10uM” value is reported as -2.05%.
For `N#C/C(=C\C=C\c1ccccc1)C(=O)NCc1cccnc1`, the “hERG current change (%, negative = inhibition) at 10uM” value was 0.383%.
In the case of `O=C(Nc1cc(C(F)(F)F)ccc1N1CCOCC1)c1ccccc1F`, the “hERG current change (%, negative = inhibition) at 10uM” value was -4.2%.
In the case of `COC(=O)c1ccc(C(=O)O)nc1`, the “hERG current change (%, negative = inhibition) at 10uM” value is given as 10.8%.
Take `CCCCNCC(=O)Nc1sc(C)c(C)c1C(=O)OCC`: the “hERG current change (%, negative = inhibition) at 10uM” value was -8.31%.
As for `COc1cccc(C(=O)Nc2ccc3c(c2)n(C)c(=O)n3C)c1`, the “hERG current change (%, negative = inhibition) at 10uM” value is reported as 10.9%.
The same measure for `CNC(=O)c1nc(C)c(C2(C)CC(c3ccccc3)=NO2)s1` (stereo not drawn): 9.3%; for `COc1ccc(/C=C(\NC(=O)c2ccc(OCC(C)C)cc2)C(=O)OCc2ccco2)cc1`: 2.07%.
As to `CCN1CCc2c(C#N)c(NCc3ccccc3)nc(N(CC)CC)c2C1`, the “hERG current change (%, negative = inhibition) at 10uM” value is listed as -68.5%.
For `COc1ccc(-c2nnc(-c3ccc(N(C)C)cc3)o2)cc1`, the “hERG current change (%, negative = inhibition) at 10uM” value is on record as 11.1%.
On to `CCOC(=O)N1CCC(NC(=O)c2ccc3c(c2)N(CC)CCS3)CC1`, for which the “hERG current change (%, negative = inhibition) at 10uM” value is reported as 2.99%.
`O=C(O)C1CC(O)CN1S(=O)(=O)c1cccs1` (stereo not drawn): the “hERG current change (%, negative = inhibition) at 10uM” value is recorded as 25.6%.
The same measure for `CCCCCCCCN1[C@@H](CC(=O)O)c2cc(C(F)(F)F)ccc2S1(=O)=O`: 15.4%; for `O=C(CCN1C(=O)/C(=C/c2ccccc2)SC1=S)N[C@@H](CO)Cc1ccccc1`: 17.8%.
On to `Nn1c(Cc2ccc(Br)cc2)n[nH]c1=S`, for which the “hERG current change (%, negative = inhibition) at 10uM” value was 27.5%.
As for `Cc1ccc(S(=O)(=O)NNC(=O)C(=O)NNc2ccccn2)cc1`, the “hERG current change (%, negative = inhibition) at 10uM” value is -0.0521%.
The result for `O=C(COc1c(CO)cc(Br)cc1CO)NC1CCCc2ccccc21` (stereo not drawn) reads -3.01%; that for `COc1ccccc1N1CCN(C(=O)C(Cc2ccccc2)NC(=O)C2CCCCC2)CC1` (stereo not drawn), -18.3%.
Take `CC(C)(C)c1ccc(COn2ccnc2)cc1`: the “hERG current change (%, negative = inhibition) at 10uM” value came to 25.6%.
The result for `CCN(CC)C(=O)c1[nH]cnc1C(=O)N[C@@H](Cc1ccccc1)C(=O)OC(C)(C)C` reads -8.27%; that for `O=C(NCc1nc2ccccc2[nH]1)c1ccc([N+](=O)[O-])cc1`, -38.5%.
`CCOc1ccc(CCNC(=O)CN2C(=O)NC3(CCCCC3)C2=O)cc1OCC`: the “hERG current change (%, negative = inhibition) at 10uM” value is recorded as -11.1%.
The result for `CCOC(=O)C1(Cc2cccc(OC)c2)CCN(Cc2cnc(N)nc2)CC1` reads -28.2%.
`Cc1cc(C)n(-c2ccc(C(=O)NC3=NCCS3)cc2)n1`: the “hERG current change (%, negative = inhibition) at 10uM” value came to 0.574%.
In the case of `CCc1ccc(C(C(=O)NC2CCCC2)N(C(=O)c2csnn2)C2CC2)cc1` (stereo not drawn), the “hERG current change (%, negative = inhibition) at 10uM” value was -6.37%.
Regarding `Cc1cccc(CCNC(=O)c2oc3c(C)c(C)ccc3c2C)n1`, the “hERG current change (%, negative = inhibition) at 10uM” value is given as 7.49%.
The result for `COc1ccc(S(=O)(=O)NCCc2cn3cccc(C)c3n2)cc1OC` reads 21.5%; that for `CC(=O)N1CCc2cc(S(=O)(=O)NCC(=O)NCc3ccccc3Cl)ccc21`, 7.17%.
With `CCOc1ccccc1C1SCC(=O)Nc2c1c(=O)[nH]n2C(CC)CC` (stereo not drawn), the “hERG current change (%, negative = inhibition) at 10uM” value came to 3.95%.
Turning to `CCCN(CC#CCO)CCC`, the “hERG current change (%, negative = inhibition) at 10uM” value is on record as 4.82%.
For `COCCOC1CCN(Cc2cn(Cc3ccccc3)nc2-c2cc3ccccc3o2)CC1`, the “hERG current change (%, negative = inhibition) at 10uM” value is -67%.
Regarding `CC1(C)CC(=O)C2=C(C1)NCN(Cc1ccccc1)C2`, the “hERG current change (%, negative = inhibition) at 10uM” value is listed as -0.638%.
The result for `COCc1cc(=O)[nH]c(-c2csc(C)n2)n1` reads 9.14%; that for `CSCC[C@H](NC(=O)OC(C)(C)C)C(=O)N/N=C/c1c(C)[nH]c(=O)[nH]c1=O`, 21.9%.
The result for `CC(C)Sc1nc2c([nH]1)c(=N)ncn2Cc1ccccc1` reads -5.52%; that for `C/C(N)=C(/C#N)C(=O)COC(=O)Cc1coc2cc(C)ccc12`, 8.22%; that for `Cc1cc(Cl)ccc1NC(=S)N1CCN(Cc2ccc3c(c2)OCO3)CC1`, 4.84%.
Take `COc1ccc(CCN2C(=O)c3ccncc3C2=O)cc1OC`: the “hERG current change (%, negative = inhibition) at 10uM” value amounted to 0.341%.
The result for `CC(=O)Nc1ccc(S(=O)(=O)Nc2ccccc2C(=O)N2CCOCC2)cc1` reads 21.6%; that for `CCn1c(SCC(=O)NCCc2ccccc2)nc2sc3c(c2c1=O)CCN(C)C3`, -3.37%.
Regarding `Cc1ccc(-n2cc(S(=O)(=O)c3ccc(C)cc3)[nH]c2=O)cc1`, the “hERG current change (%, negative = inhibition) at 10uM” value is 4.72%.
The result for `Cc1cccc(C2NS(=O)(=O)N=C2N)c1` (stereo not drawn) reads -7.14%; that for `CCN=C1SC(CC(=O)NC(N)=O)C(=O)N1CC` (stereo not drawn), 12%.
As for `O=C(c1ccc(Cl)cc1)N1CCCC(C(=O)N2CCCCC2)C1` (stereo not drawn), the “hERG current change (%, negative = inhibition) at 10uM” value is recorded as 15.3%.
Take `COC(=O)C(Cc1c[nH]c2ccccc12)NC(=O)C1CC1` (stereo not drawn): the “hERG current change (%, negative = inhibition) at 10uM” value was 16%.
Turning to `CCCCNC(=S)N(C)/N=C/c1ccc(OCC(=O)Nc2c(C)cc(C)cc2C)c(OC)c1`, the “hERG current change (%, negative = inhibition) at 10uM” value was 7.74%.
The same measure for `COC(=O)C1(C(F)(F)F)N=C(C(F)(F)F)Nc2ccc(Cl)cc21` (stereo not drawn): -2.1%; for `CN(Cc1ccccc1)C(=O)C1CCCN1S(=O)(=O)c1ccc2c(c1)n(C)c(=O)c(=O)n2C` (stereo not drawn): -16.2%.
Regarding `COc1cc(Cc2nc3ccc(S(=O)(=O)N4CCOCC4)cc3[nH]2)cc(OC)c1OC`, the “hERG current change (%, negative = inhibition) at 10uM” value was determined as 8.71%.
In the case of `O=C(Nc1ccccc1[N+](=O)[O-])c1cc2ccccc2nc1Cl`, the “hERG current change (%, negative = inhibition) at 10uM” value is reported as 6.1%.
Turning to `O=C(c1cccc(S(=O)(=O)N2CCCC2)c1)N1CCN(c2ccccc2F)CC1`, the “hERG current change (%, negative = inhibition) at 10uM” value is listed as -18.1%.
